Paper PMC4336329 (PLoS ONE, 2015)
The campaign covered roughly 310,000 compounds. About 14,000 (4.5%) showed an effect of 50% or more. Effects have a minus sign here. Some of the results follow.

Molecular target: human ether-à-go-go-related gene (hERG) potassium channel (human, UniProt Q12809)
Assay: primary screen, population patch clamp on CHO cells stably expressing hERG
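Further: peak tail current of the secondary pulse compared with the same well before compound.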

human ether-à-go-go-related gene (hERG) potassium channel, sequence (Q12809 whole entry, looked up): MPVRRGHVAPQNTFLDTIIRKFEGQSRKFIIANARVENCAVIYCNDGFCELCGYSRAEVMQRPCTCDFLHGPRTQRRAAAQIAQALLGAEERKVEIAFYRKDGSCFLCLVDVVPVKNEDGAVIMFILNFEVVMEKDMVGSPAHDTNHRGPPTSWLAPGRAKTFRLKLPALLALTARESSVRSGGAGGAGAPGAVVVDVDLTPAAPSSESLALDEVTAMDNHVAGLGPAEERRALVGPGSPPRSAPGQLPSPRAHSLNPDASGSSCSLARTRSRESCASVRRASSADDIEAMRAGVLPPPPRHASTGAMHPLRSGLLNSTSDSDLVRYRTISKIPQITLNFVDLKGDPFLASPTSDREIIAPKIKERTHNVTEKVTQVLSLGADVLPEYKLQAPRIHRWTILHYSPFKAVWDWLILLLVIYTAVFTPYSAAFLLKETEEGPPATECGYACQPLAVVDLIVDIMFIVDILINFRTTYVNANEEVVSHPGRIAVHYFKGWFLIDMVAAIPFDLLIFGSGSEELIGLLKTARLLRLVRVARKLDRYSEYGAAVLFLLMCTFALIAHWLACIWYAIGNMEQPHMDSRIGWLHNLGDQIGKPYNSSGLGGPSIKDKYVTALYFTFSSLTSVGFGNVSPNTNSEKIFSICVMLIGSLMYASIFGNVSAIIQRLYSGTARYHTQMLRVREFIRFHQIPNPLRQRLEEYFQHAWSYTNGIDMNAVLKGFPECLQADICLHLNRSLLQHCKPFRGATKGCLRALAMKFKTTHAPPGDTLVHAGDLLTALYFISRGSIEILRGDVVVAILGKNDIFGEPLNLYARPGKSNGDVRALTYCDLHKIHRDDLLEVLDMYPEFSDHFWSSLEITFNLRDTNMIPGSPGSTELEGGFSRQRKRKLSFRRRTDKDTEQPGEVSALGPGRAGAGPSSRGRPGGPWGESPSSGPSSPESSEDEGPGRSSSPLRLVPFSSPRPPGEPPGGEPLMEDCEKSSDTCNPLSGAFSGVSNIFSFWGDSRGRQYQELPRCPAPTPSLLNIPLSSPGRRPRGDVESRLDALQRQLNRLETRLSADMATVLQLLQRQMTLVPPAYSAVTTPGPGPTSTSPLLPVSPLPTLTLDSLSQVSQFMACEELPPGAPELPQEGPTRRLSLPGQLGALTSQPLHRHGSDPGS

Structure (SMILES) | hERG current change (%, negative = inhibition) at 10uM
CC1(C)CC(=O)C2=C(C1)NC(=O)C21C(C(=O)OC(C)(C)C)=C(N)Oc2ccc(Br)cc21 (centres unmarked) | -13.1%
O=C(O)CCCC(=O)N1CC(=O)Nc2ccccc21 | 4.5%
O=C(Nc1ccc(N2CCOCC2)cc1)C1CC(=O)N(c2ccccc2)C1 (centres unmarked) | 0.539%
COc1cc(CNC(=O)c2ccccc2NC(=O)C2=C(C)OCCS2)cc(OC)c1OC | 9.03%
CCCCn1c(N)c(N(CCOC)C(=O)CSCc2ccccc2C)c(=O)[nH]c1=O | -8.23%
Cc1nn(Cc2ccccc2)c(Cl)c1C(=O)NCc1ccc(C)n1C | -22.1%
Cc1ccc(-c2cc(-c3ccco3)c3c(N)c(C(=O)NN)oc3n2)cc1 | 6.81%
O=C(/C=C/c1ccco1)N(Cc1cccc(F)c1)C1CCS(=O)(=O)C1 (centres unmarked) | -29.3%
COc1cc(OC)c(OC)cc1CNC(=O)c1cc(S(=O)(=O)N2CCOCC2)ccc1F | -9.79%
COC(=O)CCC(NC(=O)c1cc(-c2ccc3c(c2)OCCO3)oc1C)C(=O)OC (centres unmarked) | 8.3%
COc1ccc(C(=O)OCCCc2cc3ccccc3c(=O)o2)cc1 | -24.8%
Cc1cccc(NC(=O)c2ccccc2NC(=O)C(C)(C)C)n1 | -0.982%
O=C(Oc1ccccc1)N1CCN(c2ccc(F)cc2)CC1 | -7.66%
Nc1nc(-c2ccc(Br)cc2)c(S(=O)(=O)c2ccccc2)s1 | 0.913%
Cc1nn(-c2ccccc2)c(C)c1/C=N/NC(=O)CSc1nnc(-c2ccccc2)n1-c1ccc(Cl)cc1 | 5.46%
COc1ccc(-n2nc(C(=O)NCC(=O)NCc3cccc(F)c3)c3ccccc3c2=O)cc1Cl | -0.0515%
COCc1cc(CN2CCCC(C(=O)Nc3cccc(-n4cnnn4)c3)C2)ccc1OC (centres unmarked) | -6.58%
COc1ccc(C2=NOC(C(=O)NCc3ccco3)C2)cc1OC (centres unmarked) | -9.78%
Fc1ccc(N2CCN(Cc3cnc(Cl)s3)CC2)cc1 | -3.52%
COc1cccc(-n2sc3c(c2=S)-c2cc(OC)ccc2NC3(C)C)c1 | 2.45%
COc1ccc(CNC(=O)c2ccc(CS(=O)Cc3ccc(Cl)cc3)o2)cc1 (centres unmarked) | -84.6%
Cc1ccc(C)c(C(=O)COC(=O)c2cccc(N3C(=O)c4c(C)nc5ccccc5c4C3=O)c2)c1 | 30.2%
COc1ccc(-c2c([C@H]3[C@H]4C=CC[C@@H](C)[C@@H]4C(=O)N3Cc3ccccc3)ccc3ccccc23)cc1OC | 14.7%

Structure (SMILES) | hERG current change (%, negative = inhibition) at 10uM
CCOc1ccccc1C(=O)Oc1cc(C)[nH]c(=O)c1[N+](=O)[O-] | 6.9%
C=CCn1c(CCNC(=O)C(C)(C)C)nc2ccccc21 | 12.7%
COc1cccc(CNC(=O)c2ccc(NC(=O)C3=CSCCO3)cc2)c1 | 5.45%
COc1ccc(Cl)cc1NC(=S)NC(=O)c1ccc2c(c1)OCO2 | 11.1%
CC(NS(=O)(=O)c1ccc(OCC(=O)NCc2ccncc2)cc1)c1ccccc1 (centres unmarked) | 15%
COc1ccc(NC(=O)CN(c2ccc(OC)cc2)S(=O)(=O)c2c(C)nn(C)c2C)cc1 | 5.28%
Cc1ccccc1C(=O)Nc1nnc(CC(=O)N/N=C/c2ccncc2)s1 | 14.1%
COCCCN(C(=S)NC(=O)C(C)(C)C)c1c(N)n(Cc2ccccc2)c(=O)[nH]c1=O | 18.2%
O=C1N/C(=N\N=C\c2cccs2)SC1Cc1ccc(Cl)cc1 (centres unmarked) | -8.96%
CCn1c(SCC(=O)C(C)(C)C)nnc1-c1ccccn1 | 8.27%
O=C(COc1ncnc2ccccc12)Nc1ccccc1[N+](=O)[O-] | 6.5%
O=C1Nc2ccccc2C12Nc1ccccc1S2 (centres unmarked) | 8.88%
Cc1csc(SCC(=O)NC23CC4CC(CC(C4)C2)C3)n1 | -20.5%
CCOC(=O)c1ccc(NC(=O)CC2C(=O)OCCN2CC)cc1 (centres unmarked) | -2.18%
CCC(=O)N1CCN(c2ccc(Cl)cc2NC(=S)NC(=O)c2ccco2)CC1 | -0.88%
O=S(=O)(NCCc1ccccn1)c1ccc(OC(F)(F)F)cc1 | 14.5%
NS(=O)(=O)c1ccc(-c2ccc(/C=C3\C(=O)Nc4ccccc43)o2)cc1 | 11%
O=C(COc1ccc2ccccc2c1)Nc1ccncc1 | 1.27%
Cc1cc(Cl)ccc1NC(=O)Cn1cncn1 | 14.3%
COc1ccccc1C(=O)NCCn1cc(SCC(=O)NCC2CCCO2)c2ccccc21 (centres unmarked) | -16.1%
CC(C(=O)NC(c1ccccc1)c1ccccc1)N1CCOCC1 (centres unmarked) | -12.3%
C/C(N)=C(/C#N)C(=O)CSc1nnnn1-c1ccc(C)cc1 | -11.2%
CCOc1ccc(-c2cc3cc(OC)c(OC)cc3c(C)n2)cc1 | 0.157%

Structure (SMILES) | hERG current change (%, negative = inhibition) at 10uM
CC(C)CCN1CCN(Cc2cccn2-c2ccc(Cl)cn2)CC1CCO (centres unmarked) | -64.8%
CCc1c(C(=O)NC2CCCc3ccccc32)[nH]c(C)c1C(C)=O (centres unmarked) | 5.15%
CC1CC(C)(C)NC(=O)O1 (centres unmarked) | 4.42%
O=C1C2C3c4ccccc4C(c4ccccc43)C2C(=O)N1c1nc(-c2ccccc2)cs1 (centres unmarked) | 15.5%
Cl.O=C(CCN1CCCCC1)Nc1cccc(Cl)c1 | -35.9%
COc1cccc(CC2(CO)CCN(CC3=CC[C@H]4C[C@@H]3C4(C)C)CC2)c1 | -44.2%
O=c1[nH]c2ccccc2c(=O)n1-c1cccc(Cl)c1 | -3.31%
CNC(=O)c1cc2ncc(C(F)(F)F)cc2s1 | 6.18%
Cc1cccc(-c2c(O)cc(=O)[nH]c2Cl)c1 | 2.34%
CCCNC(=O)Nc1nccs1 | 11.3%
Cc1cccc(NC(=S)Nc2ccc(Br)cc2)c1 | 7.23%
CCOc1ccc(S(=O)(=O)/N=C(/c2ccccc2)N(C)C)cc1 | 14%
CCOc1cc(S(=O)(=O)N2CCCC2)ccc1Cl | -0.0211%
Cc1c(C(=O)N(C)C)c2cc(Cl)ccc2n1O | 15.9%
O=C(C(=O)N1CCOCC1)c1cn(CC(=O)N2CCc3ccccc3C2)c2ccccc12 | -16%
Cc1ccnc(N/C=C(/NC(=O)c2ccccc2)C(=O)NN)n1 | 4.27%
O=C1CCC(C(=O)OC(C(=O)c2c[nH]c3ccccc23)c2ccccc2)=NN1 (centres unmarked) | -3.33%
Cc1cc(-c2n[nH]c(=S)n2/N=C/c2sccc2C)n[nH]1 | 15.8%
CC(C)Cn1c(=O)[nH]c2ccccc21 | 3.46%
CCN(CC)S(=O)(=O)c1ccc2oc(Nc3ccc(OC)cc3OC)nc2c1 | 9.24%
O=c1c(O)c(-c2cccs2)oc2ccccc12 | -1.08%
COc1ccc(CN(C)S(=O)(=O)c2nnc(NC(=O)c3ccccc3Br)s2)cc1 | -2.47%
COc1ccc(C(=O)NCCn2cc(SCC(=O)NCC3CCCO3)c3ccccc32)cc1OC (centres unmarked) | -13.9%

Structure (SMILES) | hERG current change (%, negative = inhibition) at 10uM
Cc1nc2ccccc2c(=O)n1CCc1ccc(O)cc1 | 7.99%
CCOc1ccccc1-c1nc(-c2ccc(C)nc2OC)no1 | 6.86%
O=C(O)c1ccc(NC(=O)C2CCCCC2)cc1 | -7.8%
COC(=O)c1c(C(=O)OC)c2cccc3cc(-c4ccccc4)c4ccc1c4n32 | 20.7%
CCCc1c(C(=O)NNc2cc(C(F)(F)F)ccc2Cl)cnn1-c1ccccc1 | 0.78%
CC(=O)c1ccc(N2CCN(CC(=O)Nc3ccccc3C(=O)NC3CC3)CC2)c(F)c1 | -27.9%
Cc1ccc(-c2cc(C(=O)O)c3cc(Br)ccc3n2)o1 | 5.78%
CC(=O)NCC(=O)N(C)C(C(=O)Nc1ccc2c(c1)OCCO2)c1ccccc1 (centres unmarked) | 6.16%
Cn1c(C(=O)NC2CC2)cc2c(=O)n(C)c3ccccc3c21 | -6.56%
Cc1cccc2c1-c1sc(C(=O)NCCCN3CCCC(C)C3)cc1CO2 (centres unmarked) | -77.9%
COc1ccc(CN(CCN2CCOCC2)C(=O)c2c(F)cccc2F)cc1OC.Cl | -5.21%
Cc1cc(C)n(-c2nc(C)nc(N)n2)n1 | 10.3%
Cc1ccc2[nH]c3c(c2c1)CNCC3.Cl | 24.6%
Cc1nnc(SCC(=O)OC2CC(C)CCC2C(C)C)[nH]c1=O (centres unmarked) | 11.1%
O=C(COc1ccccc1Cl)Nc1ccc2c(c1)OCO2 | 11.1%
CCC(CO)n1c(=S)[nH]c2cc(OC)c(OC)cc2c1=O (centres unmarked) | 14.8%
O=C(COc1ccccc1[N+](=O)[O-])N/N=C/c1cccc(OC(=O)c2ccc3c(c2)OCO3)c1 | -12.1%
O=C(NCCOCCOCCNC(=O)c1ccccc1)c1ccccc1 | 12.7%
COc1cccc(C(=O)Oc2cccc(N3C(=O)C4C5CC(C(Br)C5Br)C4C3=O)c2)c1 (centres unmarked) | -6.7%
CC(=O)Oc1ccc(-c2csc(Nc3cccc(C)n3)n2)cc1 | 15.2%
